This passage reports binding signal results from article PMC7819943, “Rice protein-binding microarrays: a tool to detect cis-acting elements near promoter regions in rice”.

The other results are listed elsewhere or left out.

This assay has as its target T1, OsWOX13 (Oryza sativa, UniProt Q5QMM3 1-267).
T1 sequence: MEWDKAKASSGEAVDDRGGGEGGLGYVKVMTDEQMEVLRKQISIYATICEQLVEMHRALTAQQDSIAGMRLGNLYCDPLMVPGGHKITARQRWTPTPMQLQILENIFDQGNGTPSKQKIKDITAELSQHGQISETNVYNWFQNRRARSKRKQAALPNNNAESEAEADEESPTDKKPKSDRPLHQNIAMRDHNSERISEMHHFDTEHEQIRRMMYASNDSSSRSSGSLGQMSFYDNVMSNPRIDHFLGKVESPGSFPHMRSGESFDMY
The experiment in a line: protein-binding microarray (RPBM); PBS, 2% BSA, 51.3 ng/ul salmon testes DNA, 50 uM zinc acetate, 200 nM TF, 25 C, 1 h; high values mean tight binding. The conditions noted are these: protein: recombinant; tags: N-terminal polyhistidine and DsRed monomer fusion (pET32a); label: CyDye5-dUTP incorporated in the synthesized complementary strand; 3' TTTTT single-stranded linker to array surface; dsDNA, one strand shown. In a few lines:
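For the binding signal, per-feature fluorescence intensity was read in arbitrary units on an Axon 4000B scanner. Before scanning, a 2% BSA-blocked custom Agilent array made double-stranded with Cy5-dUTP was washed after 1 h at 25 °C with 200 nM protein and 50 µM zinc acetate. The proteins were Ni–NTA-purified transcription factors with N-terminal polyhistidine and DsRed fusions, expressed in E. coli BL21-CodonPlus.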
Take “ATTTAACTGTATAAACAATTAATAACAAGAATTGTGTATACGGAGTCACCTAGTGCAG”: the binding signal was 16100 fluorescence intensity (a.u.). For the sequence “TCGAAAGTAATTAGTACTAGATTGATTGTCAGTTCAGTCTCGGAGTCACCTAGTGCAG”, the binding signal is 53100 fluorescence intensity (a.u.).

For the sequence “AAATTTTATTTATAAATTATCTTCCCTTCACAAATATGTTCGGAGTCACCTAGTGCAG”, the binding signal is 5040 fluorescence intensity (a.u.).

Turning to “CAATAATTTACCTTATTTAGAACAATTCGCATCGTACTTTCGGAGTCACCTAGTGCAG”, the binding signal was 9930 fluorescence intensity (a.u.).

As for “GTGTGATGAACTCAAAACACAATCAAGTATACTTGTGTGACGGAGTCACCTAGTGCAG”, the binding signal is 5600 fluorescence intensity (a.u.). Regarding “ATCTTATCGTACTAATTTATCTTAATACAGTGTAATAAACCGGAGTCACCTAGTGCAG”, the binding signal is 4030 fluorescence intensity (a.u.).

Regarding “TACACTATAATTACATGCTATTTACATATGTAATTTTAGACGGAGTCACCTAGTGCAG”, the binding signal is 7070 fluorescence intensity (a.u.).

For “TCATAACTAATATTTAAATGGTATTTGAACATCCCATGGACGGAGTCACCTAGTGCAG”, the binding signal was 9720 fluorescence intensity (a.u.). Take “CACAAGATAATGATTGGTGATAAACTCTTGTGCATCCAAACGGAGTCACCTAGTGCAG”: the binding signal is 28100 fluorescence intensity (a.u.).

Consider “CCTACGAATGTCCTTAATTAGTGAGGACACTTTAGAAGTGCGGAGTCACCTAGTGCAG”, for which the binding signal is 4430 fluorescence intensity (a.u.). Then “ACGTTATTTATTGTTTTAGGTTCAATCTACGAGTTTCTTTCGGAGTCACCTAGTGCAG”, with 3350 fluorescence intensity (a.u.); and “ACCCCTTAATTCTTAAAATTTTAAGCTCTTCGAAATAGTTCGGAGTCACCTAGTGCAG”, with 4080 fluorescence intensity (a.u.). As to “CCTGACCCCACCAATCAGAGCATTTCCCGCGCAATACACACGGAGTCACCTAGTGCAG”, the binding signal was 5860 fluorescence intensity (a.u.). To “TAAGCTAATTGGTGAAAATATTTTGACTTTTAGTTTATTTCGGAGTCACCTAGTGCAG” belongs 20600 fluorescence intensity (a.u.); to “ATTAATGAATCTAGATAGATATATATGTCTAGATTTATTACGGAGTCACCTAGTGCAG”, 7480 fluorescence intensity (a.u.). For “ATCAATTAGCATAAATTCATTGATGACTTTCGGTGCAAAGCGGAGTCACCTAGTGCAG”, the binding signal was 13700 fluorescence intensity (a.u.). On to “ATAGATTATCTTATATATTATAATAAGATTTCATGGTAAGCGGAGTCACCTAGTGCAG”, for which the binding signal was 11800 fluorescence intensity (a.u.). Take “ATCAGATTTATTGTATTTATTTCTCTTTATTTCTCCACATCGGAGTCACCTAGTGCAG”: the binding signal was 4710 fluorescence intensity (a.u.). Then “TTTAATTTATTTCCTCATTATATTAATATTAAAACTGAGTCGGAGTCACCTAGTGCAG”, with 33700 fluorescence intensity (a.u.).

On to “CTGAAAACGATTGCAAAATTGACTCGAGTAGTTTTGTATGCGGAGTCACCTAGTGCAG”, for which the binding signal is 7400 fluorescence intensity (a.u.). For the sequence “ATGCTAGCAATGCTGATTGGCCCCGTCAAGCAAGTGACACCGGAGTCACCTAGTGCAG”, the binding signal is 13800 fluorescence intensity (a.u.).

In the case of “AATTAATTAATCTGAATGCTCTTTACACACGAGATGTCTGCGGAGTCACCTAGTGCAG”, the binding signal was 31000 fluorescence intensity (a.u.).

As to “CCAAATTTTGAGTATTATTAACTCAAATTTTAAACCACATCGGAGTCACCTAGTGCAG”, the binding signal is 5680 fluorescence intensity (a.u.).

On to “GTTTGTTGATGTTATTTCTTGGATTGAGGCGTTTGTCAATCGGAGTCACCTAGTGCAG”, for which the binding signal is 4770 fluorescence intensity (a.u.). Consider “TTGTCAATTTGCCACCAGCGTCAAATGTTTGTCCATGACCCGGAGTCACCTAGTGCAG”, for which the binding signal was 3740 fluorescence intensity (a.u.).

Take “AAGTTGACGAGGCTTGTGAATGATCGGCTTCTGGAAAGCGCGGAGTCACCTAGTGCAG”: the binding signal is 6330 fluorescence intensity (a.u.). As for “ATGTGATTGCGAATTGTGACCAGGAATGCATGATTTAACACGGAGTCACCTAGTGCAG”, the binding signal is 22200 fluorescence intensity (a.u.). On to “CAAACTTCTAATTTTAACGTAAGTTAAACACTCCCCAAGTCGGAGTCACCTAGTGCAG”, for which the binding signal is 3610 fluorescence intensity (a.u.). “AAAATTGAGTAGATAACTTACGACGATAATCCAAATCAAACGGAGTCACCTAGTGCAG”: the binding signal was 5580 fluorescence intensity (a.u.). Consider “ACTAATTGTATAATTTGCATGGAAATCGCGAGATGAATCTCGGAGTCACCTAGTGCAG”, for which the binding signal was 44400 fluorescence intensity (a.u.). In the case of “CACACATAATTTCTGGCAAGACAACGCATTAATCGGGAGCCGGAGTCACCTAGTGCAG”, the binding signal is 5750 fluorescence intensity (a.u.). Turning to “AAATGATGAAGAAATTAATTGGCGATTGTTGTGATCAGTTCGGAGTCACCTAGTGCAG”, the binding signal was 36800 fluorescence intensity (a.u.). On to “CCCAAATTATAAATCACCTCGTAATTTCTCGCTTAATTATCGGAGTCACCTAGTGCAG”, for which the binding signal is 30900 fluorescence intensity (a.u.).

On to “TGTCCTCCTGCTCCTGATTGGATCGGTAGAAAGGTGGCGGCGGAGTCACCTAGTGCAG”, for which the binding signal is 11000 fluorescence intensity (a.u.).

Take “TGTTCGATATGATCTTAATTAGCCAATGGATGCTGAGAGCCGGAGTCACCTAGTGCAG”: the binding signal is 4720 fluorescence intensity (a.u.). Then “CTAAACATACAAACTTCTAACTTTTCCGTCACATCGTTCCCGGAGTCACCTAGTGCAG”, with 3430 fluorescence intensity (a.u.). On to “CCATGCTTTGTCAAGTTATGATTTGTTGGAATTTTCCCAACGGAGTCACCTAGTGCAG”, for which the binding signal is 3270 fluorescence intensity (a.u.). As for “TACCAATCTATAAATATATTCTATACCACATACAATCCAGCGGAGTCACCTAGTGCAG”, the binding signal is 3520 fluorescence intensity (a.u.).

“TAGCTAATTTCAACTAATCTCAATCAGTGACAACTTTTATCGGAGTCACCTAGTGCAG”: the binding signal is 10700 fluorescence intensity (a.u.).

“GACTTAACTGGGTGTGTTTTGAGAGCTTGGATTTTATCCTCGGAGTCACCTAGTGCAG”: the binding signal is 6150 fluorescence intensity (a.u.).

For “ATAGATTTGATCATCAGTTGACACGTGCTATATACTCCCTCGGAGTCACCTAGTGCAG”, the binding signal is 25700 fluorescence intensity (a.u.).

For “CTGTTAATTAATCGTCTAATCATAAGTTCAGTGCTCGTATCGGAGTCACCTAGTGCAG”, the binding signal is 29000 fluorescence intensity (a.u.).
